In PubChem BioAssay AID1508624 (National Center for Advancing Translational Sciences (NCATS), 2021):
Screen size: about 48,000 compounds; about 120 (0.25%) were called active. Not shown: some 4% with an inconclusive outcome. The call rests on the fitted dose curve; in most records, active means well fitted activation curve with a large enough effect; inconclusive means small, poorly fitted or top-dose-only effect, or another doubt; inactive means no such curve, though single readings can be large or run the other way. This is one part of the list.

Assay: Primary qHTS for Identification of Small Molecule Activators of Huntingtin-Antisense Promoter Activity; further: nearly all actives have a fitted effect of over 55% in size
Conditions: HEK293 HTT-AS promoter firefly luciferase reporter, 24 h; series mostly up to 57.5 µM; activity change, positive = activation: at the top concentration
Summary of the method: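 HEK293 cells carrying firefly luciferase reporters were seeded at 2,500 per well in Opti-MEM and cultured for 24 h. They were then treated with compounds at up to 57.5 uM final for 24 h at 37 degrees C before Dual-Glo luminescence readout.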

Activity change, positive = activation, inactive:
COc1cc(OC)c(NC(=O)CCCn2nc(C)c3c(C)n(-c4ccccc4)nc3c2=O)cc1Cl -17.5%
CCN(CC)c1nc2ccccc2nc1C(=O)Nc1cc(OC)c(OC)c(OC)c1 -16.1%
O=C(NC1CC(=O)N(c2ccccc2)C1)c1ccc(S(=O)(=O)N2CCCCC2)cc1 (centres undefined) -24.5%
Cc1nn2c(C)c(C(=O)NCc3ccco3)cnc2c1-c1ccccc1 -12.5%
Cc1nn(C(=O)c2ccc(Cl)cc2)c(C)c1S(=O)(=O)N1CCCCCC1 -13.3%
Cc1ccc(N2CCn3c2nc2c3c(=O)n(CCCc3ccccc3)c(=O)n2C)cc1C -4.78%
O=C(Nc1ccc(F)c(Cl)c1)N1CC=C(c2c[nH]c3ccccc23)CC1 -9.89%
CC(C)CCNC(=O)c1cc2cc(S(=O)(=O)N3CCCCC3)ccc2n1C -29%
Cn1c(=O)oc2cc(S(=O)(=O)N3CCCC(C(=O)NCc4ccc(F)cc4)C3)ccc21 (centres undefined) -36.4%
O=C(NC1CCN(CCc2c[nH]c3ccccc23)CC1)c1ccccc1 -6.89%
O=C(NCCc1ccccc1Cl)c1sc2ncccc2c1-n1cccc1 10.3%
CCC(=O)N1c2ccccc2CC1C(=O)NCCc1ccccc1 (centres undefined) -5.22%
CSc1ncc(Cl)c(C(=O)Nc2c(C(=O)Nc3cccc(Cl)c3)oc3ccccc23)n1 -5.17%
CCC(=O)Nc1ccccc1-c1nc2ccccc2n(CC(=O)c2ccc(C)cc2)c1=O -14.6%
Cc1ccc(N2CCN(C(=O)c3cnc(N4CCCCC4)c4ccccc34)CC2)c(C)c1 -29.1%
COc1ccc(CNC(=O)CCCN2C(=O)COc3ccc(C)cc32)cc1 -3.32%
COc1cccc(Cn2nnc3c(=O)[nH]c(C4CCN(C(=O)c5ccccc5Cl)CC4)nc32)c1 -27.9%
CC(C)(C)C(=O)Oc1ccc2c(c1)nc(NC(=O)c1cccc([N+](=O)[O-])c1)n2CCCO -0.719%
CC1=C(C(N)=O)C(c2ccccc2Br)n2ncnc2N1 (centres undefined) -7.42%
O=C(NCc1ccccc1Br)c1cnc2sc(N3CCCCCC3)nn2c1=O 2.9%
O=C(Cn1ncc2c3ccccc3n(Cc3ccc(F)cc3)c2c1=O)NCCC1=CCCCC1 -1.13%
Cc1ccc(C)c(CN2C(=O)c3ccccc3S(=O)(=O)c3ccc(C(=O)NCCCN4CCCC(C)C4)cc32)c1 (centres undefined) -22.1%
Cc1c(C(=O)Nc2ccc(C(C)C)cc2)sc2nc3n(c(=O)c12)CCC3 -21.3%
CCC(CC)c1nn2c(=O)cc(COc3ccc(NC(=O)c4ccc(C)cc4)cc3)nc2s1 -4%
Cc1nn(C(=O)c2ccc(Cl)cc2)c(C)c1S(=O)(=O)N1CCOCC1 -16.4%
Cc1cn2c(=O)cc(COC(=O)c3cccc(NC(=O)c4ccccc4Cl)c3)nc2s1 -19.7%
CCc1ccc(CNC(=O)CN2C(=O)CSc3c2c(C)nn3-c2ccccc2)cc1 -16.6%
Cc1ccc(CNc2ncnc3c2nnn3C)cc1 12.1%
COc1ccc(OCC(=O)NCC(c2ccc(OC)cc2)N2CCCCC2)cc1 (centres undefined) 9.01%
COc1cc(OC)nc(O[C@H](C(=O)O)C(OC)(c2ccccc2)c2ccccc2)n1 -1.64%
COc1ccc(C2C(C(=O)Nc3cccnc3)=C(C)Nc3nc(-c4ccccc4)nn32)cc1OC (centres undefined) -8.1%
O=c1[nH]c(=O)n(C2CCCCC2)c(O)c1C1=Nc2ccccc2SC(c2ccccc2)C1 (centres undefined) -11.6%
Cc1cccc(OCC(=O)N(Cc2ccc(C(C)(C)C)cc2)Cc2ccco2)c1 -41%
CN(C)c1ccc(/C=C/c2noc(-c3ccccc3O)n2)cc1 0%
COc1ccccc1NC(=O)C1=C(C)Nc2nc(SCc3ccccc3Cl)nn2C1c1ccccn1 (centres undefined) -7.09%
CSc1ccc(CCNS(=O)(=O)c2ccc3c(c2)C(C)(C)C(=O)N3C)cc1 -27.6%
COc1cc(OC)cc(C(=O)N2CCN(C(=O)COc3ccccc3)CC2)c1 5.4%
Cc1ccc(C(c2cccc(Br)c2)c2c(C)[nH]c3ccccc23)s1 (centres undefined) 6.61%
CC(C)c1ccc(NC(=O)C(C)N(c2ccccc2)S(C)(=O)=O)cc1 (centres undefined) -21.3%
O=c1c2ccccc2n2c(-c3ccc(Cl)cc3)nnc2n1CCc1ccccc1 -0.952%
COc1cc(OC)c(NC(=O)N2CC3CCCN3c3ccccc32)cc1Cl (centres undefined) -28.2%
CCc1ccc(-n2nc(C)c3c(C)cc(=O)n(CC(=O)Nc4ccc(C(C)=O)cc4)c32)cc1 -2.97%
COCCCNc1nc(NCc2cccc(Cl)c2)c2cnn(C)c2n1 -26.3%
COc1ccc(-c2nc(CSc3nnc(C)n4c3cc3occc34)c(C)o2)cc1OC -21.3%
CC(C)C(NS(=O)(=O)c1ccc2c(c1)oc(=O)n2C)C(=O)NCCc1ccccc1 (centres undefined) 5.52%
CC(=O)Nc1ccc(-n2c(CCC(=O)O)ccc2-c2ccc(Br)cc2)cc1 2.6%
COc1ccc(CNC(=O)Cc2c(C)c3c(cc(C)c4c(C)coc43)oc2=O)cc1OC -2.01%
COc1ccc(Cl)cc1NC(=O)Cn1c(=O)n(Cc2cccs2)c(=O)c2cccnc21 -32.5%
CC1=C(C(=O)O)N2C(=O)[C@@H](NC(=O)C(N)c3ccccc3)[C@H]2SC1 (some centres undefined) -9.24%
CCOC(=O)c1cc(-c2ccc(C)cc2)n(CC(=O)Nc2ccccc2F)c1C -13.8%
COc1ccc(Br)c2c1-c1nc(NC(=O)c3ccccc3F)sc1C2 -9.45%
CCc1ccc(-c2[nH]nc3nc(-c4ccc(OC)cc4)cc(C(=O)NCCCOC)c23)cc1 6.65%
COc1ccc(CCCc2nnc(SCC(=O)Nc3cc(C)ccc3C)o2)cc1 7.32% [at 11.5 µM, percent change from vehicle, -100% = no light]
COC(=O)c1ccccc1NC(=O)c1ccc(COc2cc(C)cc(C)c2)o1 15.9%
Cc1nc2ccc(S(=O)(=O)N(CC(=O)Nc3cccc(Cl)c3)Cc3ccccc3)cc2s1 -32.5%
Cc1nn(CC(=O)NCc2ccc(N(C)C)cc2)c(=O)c2c(C)n(-c3ccc(Cl)cc3)nc12 -39.8%
CCOc1ccc(NC(=O)CCn2c(=O)c3cccn3c3cccnc32)cc1 -6.88%
COc1ccc(CCNC(=O)c2ccc3c(c2)N(Cc2cc(C)ccc2C)C(=O)c2ccccc2S3=O)cc1OC (centres undefined) -23.3%
COc1ccc(-c2nc(SCC(=O)N3CCN(c4ccc(F)cc4)CC3)n[nH]2)cc1 -18.8%
CCCCOc1ccc(CNC(=O)Cc2ccc(NC(=O)N3CCCCc4ccccc43)cc2)cc1 -8.71%
CCn1c(=O)n(-c2ccc(F)cc2)c(=O)c2sc3ccccc3c21 -1.82%
CC(C)(C)OC(=O)N1CCC(c2c(C(=O)N3CCN(c4ccccc4)CC3)cnn2-c2ccccc2)CC1 -8.84%
CCOC(=O)c1c(Nc2ccc(F)cc2)nnc(-c2ccccc2)c1-c1ccccc1 -30.8%
CC(=O)N1CCC2(CC1)OC(=O)C(C)=C2C(=O)Nc1cc(C)ccc1C -11.3%
O=C(c1ccccc1Cl)N(Cc1ccco1)c1ccccn1 -19.5%
Cc1cc(Br)ccc1NC(=O)Cn1cnc2sc(C)c(S(=O)(=O)N3CCN(C)CC3)c2c1=O 15%
COC(=O)c1sc2cccc(F)c2c1S(=O)(=O)Nc1ccc(N(C)C)cc1 -19.6%
CC1=C(C(=O)NCc2cccc(Br)c2)C2(CCCCC2)OC1=O -24.4%
CCCCOC(=O)/C(C#N)=C/c1ccc(-c2cccc(C(F)(F)F)c2)o1 -2.78%
CCOc1ccc(-c2nonc2NC(=O)c2ccco2)cc1 -24.8%
CCOc1ccc(NC(=O)CSc2nc3c(oc4ccccc43)c(=O)n2-c2cc(C)cc(C)c2)cc1 -8.55%
COc1cc(/C=C/c2nc(C#N)c(N3CCCCC3)o2)cc(OC)c1OC -14.1%
Cc1ccc(C(=O)Nc2c(-c3ccccc3)nc3ccccn23)cc1 -9.43%
Cc1nnc(N2CCC(C(=O)Nc3ccc(F)cc3)CC2)c2nn(-c3ccc(Cl)cc3)c(C)c12 -24.9%
Cc1ccc(C2c3[nH]c4ccccc4c3CCN2C(=O)c2ccccc2Br)cc1 (centres undefined) -33.9%
Cc1nn(-c2ccc(F)cc2)c(-n2cccc2)c1C(=O)N1CCN(c2ccccc2)CC1 -22.6%
CCOc1ccc(Cn2nnc(C(=O)Nc3cccc(SC)c3)c2N)cc1 6.13%
CCCN(CCC)C(=O)Cn1c(=O)n(-c2ccc(C)c(C)c2)c(=O)c2c3c(sc21)CCCCC3 -6.6%
CC1CCC(NC(=O)CCc2cn(Cc3ccccc3Cl)c3ccccc23)CC1 (centres undefined) -25.7%
Cc1ncc(CO)c2c1Oc1nc(-c3ccc(F)cc3)nc(SCC(=O)N3CCCCC3)c1C2 -11.5%
Cc1ccc(CN2C(=O)N(c3ccc(F)cc3)C(=O)C2CC(=O)Nc2ccc(Cl)cc2)cc1 (centres undefined) -50%
Cc1ccc(NC(=O)CSc2nnc(-c3cc4occc4n3C)n2-c2ccccc2C)c(Cl)c1 -10.3%
Cc1ccc(C)c(Cn2c3ccccc3c3cnn(CC(=O)NC4CCC(C)CC4)c(=O)c32)c1 (centres undefined) 16.9%
O=C(NCCc1ccccc1)C1CCN(c2ncnc3c2nc2n3CCCCC2)CC1 8.51%
COc1ccc(NC(=O)CSC2=Nc3ccccc3C3=NC(CCC(=O)NCc4cccs4)C(=O)N23)cc1 (centres undefined) -20.9%
COc1ccccc1NC(=O)CCn1nc(-c2ccccc2OC)c2c(C)cc(C)nc21 -31.5%
Cc1ccccc1NC(=O)Nc1nnc(N2CCCCCC2)s1 -8.83%
CCC(=O)N1CCc2cc(Br)cc(S(=O)(=O)CCC(=O)N3CCN(c4ccc(F)cc4)CC3)c21 5.84%
Cc1ccccc1OCC(=O)OCc1cc(=O)n2nc(C3CC3)sc2n1 4.99%
Cc1cc(C)c(C)c(OCC(=O)Nc2ccc(S(=O)(=O)Nc3nc(C)cc(C)n3)cc2)c1 3.61%
O=C(CSC1=Nc2ccccc2N=C(c2ccc(F)cc2)C1)Nc1cccc(C(F)(F)F)c1 -41.1%
COc1ccccc1OCC(O)COC(N)=O (centres undefined)
CCOC(=O)C1CCCN(C(=O)C2CCN(S(=O)(=O)c3c(C)noc3/C=C/c3ccccc3F)CC2)C1 (centres undefined) 16.2%
COc1ccc(CC(=O)NCCc2sc3nc(-c4ccc(OC)cc4)nn3c2C)cc1 -0.345%
